In patent US8633183B2 (priority 2010, dated 2014):
Like-named read-outs stand apart in the source and are kept apart here.

Test system: PC3 (human prostate carcinoma cell line) cells
Experiment: cells
[1] = PC-3, 72 h, read-out: EC50 PC3 [nM]

CCc1ncnc(-c2ccc(C(=O)N3CCN(C(C)C)CC3)c(F)c2)c1C#Cc1ccc(N)nc1 [Example D-122]
EC50 (read-out: EC50 PC3): 15 nM

CCc1ncnc(-c2ccc(C(=O)N3CCC(N4CCCCC4)CC3)c(F)c2)c1C#Cc1ccc(N)nc1 [Example D-70]
EC50 (read-out: EC50 PC3): 80 nM

CCc1ncnc(-c2ccc(C(=O)N3CCN(CC)CC3)c(OC)c2)c1C#Cc1ccc(N)nc1 [Example D-53]
EC50 (read-out: EC50 PC3): 67 nM

CCc1ncnc(-c2ccc(C(=O)N3CCN(C(C)=O)CC3)c(F)c2)c1C#Cc1ccc(N)nc1C [Example D-82]
EC50 (read-out: EC50 PC3): 50 nM

CCc1ncnc(-c2ccc(C(=O)N3CCN(/C(=N\C#N)NC)CC3)c(F)c2)c1C#Cc1ccc(N)nc1 [Example D-117]
EC50 (read-out: EC50 PC3): 244 nM

CCc1ncnc(-c2ccc(C(=O)N(C)OC)c(OC)c2)c1C#Cc1ccc(N)nc1 [Example D-178]
EC50 (read-out: EC50 PC3): 85 nM

CCc1ncnc(-c2ccc(C(=O)N3CCNCC3)c(F)c2)c1C#Cc1ccc(N)nc1 [Example D-113]
EC50 (read-out: EC50 PC3): 80 nM

CCc1ncnc(-c2ccc(C(=O)N3CCN(CCN(C)C)CC3)c(F)c2)c1C#Cc1ccc(N)nc1 [Example D-99]
EC50 (read-out: EC50 PC3): 78 nM

CCc1ncnc(-c2ccc(C(=O)N3CCNCC3)c(Cl)c2)c1C#Cc1ccc(N)nc1 [Example D-152]
EC50 (read-out: EC50 PC3): 73 nM

CCc1ncnc(-c2ccc(C(=O)N3CCN(CC(F)F)CC3)c(F)c2)c1C#Cc1ccc(N)nc1 [Example D-61]
EC50 (read-out: EC50 PC3): 22 nM

CCc1ncnc(-c2ccc(C(=O)N3CCN(CCO)CC3)c(F)c2)c1C#Cc1ccc(N)nc1 [Example D-91]
EC50 (read-out: EC50 PC3): 44 nM

CCc1ncnc(-c2ccc(C(=O)N3CCN(CC4CC4)CC3)c(F)c2)c1C#Cc1ccc(N)nc1 [Example D-106]
EC50 (read-out: EC50 PC3): 42 nM

CCc1ncnc(-c2ccc(C(=O)NC3CC(N4CCCCC4)C3)c(F)c2)c1C#Cc1ccc(N)nc1 [Example D-207]
EC50 (read-out: EC50 PC3): 71 nM

CCc1ncnc(-c2ccc(Cl)c(C(=O)N(CC)CC)c2)c1C#Cc1ccc(N)nc1 [Example C-47]
EC50 [1]: 517 nM

CCc1ncnc(-c2ccc(C(=O)N3CCN(C(C)=O)CC3)c(OC)c2)c1C#Cc1ccc(N)nc1 [Example D-56]
EC50 (read-out: EC50 PC3): 115 nM

Cc1ncnc(-c2ccc(F)c(C(=O)N3CCOCC3)c2)c1C#Cc1ccc(N)nc1 [Example C-39]
EC50 [1]: 255 nM

CCc1ncnc(-c2ccc(C(=O)N3CCC(C(C)(C)O)CC3)c(F)c2)c1C#Cc1ccc(N)nc1 [Example D-79]
EC50 (read-out: EC50 PC3): 33 nM

CCc1ncnc(-c2ccc(C(=O)NC[C@H]3CCCN3CC)c(F)c2)c1C#Cc1ccc(N)nc1 [Example D-200]
EC50 (read-out: EC50 PC3): 451 nM

CCc1ncnc(-c2ccc(C(=O)N(C)C3CCS(=O)(=O)C3)c(F)c2)c1C#Cc1ccc(N)nc1 [Example D-216]
EC50 (read-out: EC50 PC3): 42 nM

CCc1ncnc(-c2ccc(C(=O)N3CCN(c4ccccn4)CC3)c(F)c2)c1C#Cc1ccc(N)nc1 [Example D-92]
EC50 (read-out: EC50 PC3): 76 nM

CCc1ncnc(-c2ccc(C(=O)N3CCN(CCN(C)C)CC3)c(OC)c2)c1C#Cc1ccc(N)nc1 [Example D-60]
EC50 (read-out: EC50 PC3): 480 nM

CCc1ncnc(-c2ccc(C(=O)N3CCN(Cc4ccccc4)CC3)c(F)c2)c1C#Cc1ccc(N)nc1 [Example D-97]
EC50 (read-out: EC50 PC3): 151 nM

CCc1ncnc(-c2ccc(C(=O)N(C)CCN3CCCC3=O)c(OC)c2)c1C#Cc1ccc(N)nc1 [Example D-183]
EC50 (read-out: EC50 PC3): 218 nM

CCc1ncnc(-c2ccc(C(=O)N3CCN(CC4CCCCC4)CC3)c(F)c2)c1C#Cc1ccc(N)nc1C [Example D-22]
EC50 (read-out: EC50 PC3): 355 nM

CCc1ncnc(-c2ccc(C(=O)N3CCN(C(C)=O)CC3)c(F)c2)c1C#Cc1ccc(N)nc1 [Example D-90]
EC50 (read-out: EC50 PC3): 48 nM

CCc1ncnc(-c2ccc(C(=O)N3CCN(C4CC4)CC3)c(F)c2)c1C#Cc1ccc(N)nc1 [Example D-121]
EC50 (read-out: EC50 PC3): 17 nM

CCc1ncnc(-c2ccc(C(=O)N(C)O)c(F)c2)c1C#Cc1ccc(N)nc1 [Example D-68]
EC50 (read-out: EC50 PC3): 24 nM

CNC(=O)c1ccc(-c2ncnc(C)c2C#Cc2ccc(N)nc2)cc1Cl [Example C-5]
EC50 [1]: 50 nM

CCc1ncnc(-c2ccc(C(=O)N(C)CC(C)(C)O)c(F)c2)c1C#Cc1ccc(N)nc1 [Example D-81]
EC50 (read-out: EC50 PC3): 72 nM

CCc1ncnc(-c2ccc(C(=O)N3CCOCC3)c(F)c2)c1C#Cc1ccc(N)nc1C [Example D-20]
EC50 (read-out: EC50 PC3): 14 nM

CCc1ncnc(-c2ccc(C(=O)N3CCN(C4CCS(=O)(=O)C4)CC3)c(Cl)c2)c1C#Cc1ccc(N)nc1 [Example D-32]
EC50 (read-out: EC50 PC3): 38 nM

CCc1ncnc(-c2ccc(C(=O)N3CCCC(O)C3)c(F)c2)c1C#Cc1ccc(N)nc1 [Example D-110]
EC50 (read-out: EC50 PC3): 30 nM

CCc1ncnc(-c2ccc(C(=O)N3CCN(C4CC4)CC3)c(F)c2)c1C#Cc1ccc(N)nc1C [Example D-13]
EC50 (read-out: EC50 PC3): 53 nM

CCc1ncnc(-c2ccc(C(=O)N3CC[C@@H](O)C3)c(F)c2)c1C#Cc1ccc(N)nc1 [Example D-204]
EC50 (read-out: EC50 PC3): 53 nM

CCc1ncnc(-c2ccc(C(=O)N3CC[C@@H](N(C)C)C3)c(OC)c2)c1C#Cc1ccc(N)nc1 [Example D-174]
EC50 (read-out: EC50 PC3): 282 nM

CCc1ncnc(-c2ccc(C(=O)N3CC(O)CO3)cc2)c1C#Cc1ccc(N)nc1 [Example D-224]
EC50 (read-out: EC50 PC3): 106 nM

CCc1ncnc(-c2ccc(C(=O)NCC3CCCN(C)C3)c(F)c2)c1C#Cc1ccc(N)nc1 [Example D-74]
EC50 (read-out: EC50 PC3): 128 nM

CCc1ncnc(-c2ccc(C(=O)N3CCC(N(CC)CC)C3)c(F)c2)c1C#Cc1ccc(N)nc1 [Example D-238]
EC50 (read-out: EC50 PC3): 71 nM
